Reference: ChEMBL document CHEMBL5308541, “MAIP: An Open-Source Tool to Enrich High-Throughput Screening Output and Identify Novel, Druglike Molecules with Antimalarial Activity” (ACS Med Chem Lett, 2023)
About 540 (0.36%) of roughly 150,000 compounds showed an effect of 50% or more. The list shows a part of the results.

System: Plasmodium falciparum
Experiment: Primary screen in NF54 nanoGlo assay, in single point, at 2uM, 72h; a lower Z score goes with more inhibition
Assay type: functional, Erythrocyte
Details: timepoint 72 hour

SMILES | % Inhibition [%] | Z score
CN1CCN(CCCCNC2CC3CCC(C2)N3Cc2ccccc2)CC1 (stereo unspecified) | 45 | -9.76
CN1CCN(C[C@H]2CCCN(Cc3cnc(-c4ccccn4)nc3)C2)CC1 | 4 | -0.67
Cc1cc(F)cc2[nH]c(C(=O)N3CC[C@H](Nc4ncccn4)C3)cc12 | -2 | 0.3
CC1CN(Cc2cccc(-c3cnn(C)c3)c2)CC(C)N1 (stereo unspecified) | 0 | 0.02
Cc1cc(N2CCC(N(C)Cc3nc4ccc(F)cc4[nH]3)CC2)ncn1 | -13 | 2.24
COc1ccc(N2CCN(CCCNCc3cc(Cl)c4c(c3)OCCCO4)CC2)cc1 | 6 | -1.2
CN1CCN(CCCNC(=O)c2cccc(-c3cn[nH]c3)c2)CC1 | 7 | -1.15
CC(=O)N1CCN(c2cccc(NC3CCN(Cc4ccncc4)CC3)c2)CC1 | 0 | -0.06
CN1CCN(CCOc2ccccc2C2NC(C)(CO)C3CN(C)CC23)CC1 (stereo unspecified) | -6 | 1.06
O=c1cc(C2CCN(Cc3ccccc3OCCCN3CCCCC3)CC2)cc[nH]1 | 7 | -1.44
Cn1cc(-c2ccccc2CNc2nccc(C(F)(F)F)n2)cn1 | 6 | -1.08
CCc1c(C)nc(N)nc1NCCCOC1CCN(C)CC1 | 2 | -0.44
COc1ccc2[nH]cc(CC(=O)N[C@@H](C)CN3CCN(c4ccccn4)CC3)c2c1 | 10 | -1.52
Cn1cc(Nc2cccc(C(=O)NCCCn3ccc4ccccc43)c2)cn1 | 12 | -2.58
CC(C)([C@H](NCc1ccc2c[nH]nc2c1)c1ccc(F)c(F)c1)N1CCCC1 | -1 | 0.15
FC(F)(F)c1ccnc(Nc2ccc(N3CCOCC3)nc2)n1 | 4 | -0.54
OCCOC1CCN(c2ccnc3cc(C(F)(F)F)ccc23)CC1 | -11 | 1.99
CN(CCNc1cc([C@H]2CCOC2)ncn1)C(=O)Cc1c[nH]c2ccccc12 | 9 | -1.63
Cc1cc(-c2nn(C)c(Cl)c2CN(C)Cc2cccc3cccnc23)no1 | -13 | 1.9
Nc1nc(C2CC(O)C2)cc(N2CCC(O)(c3cccnc3)CC2)n1 (stereo unspecified) | 5 | -0.86
Cn1cc(-c2csc(CNc3ccc(N4CCC(CO)CC4)cn3)n2)cn1 | -14 | 2.55

SMILES | % Inhibition [%] | Z score
O=C(NCc1ccc(N2CCNCC2)c(F)c1)c1ccc(-c2noc(C(F)(F)F)n2)cc1 | 67 | -11.53
CC(C)=CCN1CCC(NCC2(N3CCCCC3)CCOCC2)CC1 | 3 | -0.59
CCN(CC1CCN(C2CCN(C)CC2)CC1)C(=O)c1ccc(C#CC(C)(C)O)cc1 | -4 | 0.65
COc1cccc2ncn(CCNc3ccncc3C)c(=O)c12 | -3 | 0.53
O=C(CN1CCN(CN2C(=O)N[C@H](c3ccccc3OC(F)(F)F)C2=O)CC1)N1CCCCC1 | -13 | 2.25
COCCN(CC(F)F)C(=O)c1csc2ccccc12 | -7 | 1.21
CCOc1cc(NC2CCN(C(=O)N[C@H]3CC(C)(C)Oc4cc(F)ccc43)CC2)ncn1 | -6 | 1.19
O=C(C1CC=CC1)N1CCC(O)(c2ccccc2Cl)CC1 | -4 | 0.66
N#CCC1(O)CCN(C(=O)NC2CCN(c3ccccc3Br)C2)C1 (stereo unspecified) | -4 | 0.77
CN1CCN(CCCN(C)C(=O)c2csc(-c3cc4ccccc4o3)n2)CC1 | -2 | 0.42
N#Cc1cccc(-c2c[nH]c(CNC(=O)c3ccccc3-c3ncc(-c4ccccc4)o3)n2)c1 | -12 | 2.31
CCN1CCN(c2cccc(NC3CC(C)OC(C)C3)c2)CC1 (stereo unspecified) | -12 | 2.48
O[C@@H](CNc1ncnc2sccc12)CN1CCc2ccccc2C1 | -10 | 1.69
CC(=O)N1[C@@H]2CC[C@H]1CC(OC1CCN(Cc3ccc(OC(F)(F)F)cc3)CC1)C2 (stereo partly specified) | -8 | 1.46
O=C(CN1CCN(c2cc(NC3CC3)ncn2)CC1)N1CCCCCC1 | 2 | -0.28
CCOC(C)C(=O)N1CCC2(CC1)CC2C(=O)O (stereo unspecified) | -9 | 1.35
CCN(CC)CC1CCCCC1NC(C)C(=O)N1CCN(c2ncccn2)CC1 (stereo unspecified) | -3 | 0.52
Cc1cc(C(=O)NC(C)C(O)c2ccc(Br)cc2)c2ccccc2n1 (stereo unspecified) | 0 | -0.04
CN(CCNC(=O)c1nc(C2CC2)n2ccccc12)C(=O)OC(C)(C)C | -4 | 0.86
CCCc1cc(NCC2(N3CCN(C)CC3)CCCCC2)n2nccc2n1 | -3 | 0.64
Fc1ccc(N2CCC(N[C@@H]3COC4(CCNCC4)C3)CC2)cc1F | 23 | -4.05

SMILES | % Inhibition [%] | Z score
CC(=O)Nc1ccc(CNC(=O)c2scnc2C(F)(F)F)cc1 | -11 | 2.44
CC(C)(C)c1nnc2ccc(N3CCCn4c(cc5ccccc54)C3)nn12 | -6 | 0.9
Cc1cc(N)n(-c2cc(NC3CCN(Cc4ccc(Cl)cc4)CC3)ncn2)n1 | -6 | 1.06
Fc1ccc2c(CCNc3ncnc4oncc34)c[nH]c2c1 | -5 | 1.07
O=C(c1ccc2ncccc2c1)N1CCN([C@H]2CCCN(Cc3ccccc3)C2=O)CC1 | 2 | -0.34
NC(=O)c1ccc(-c2nc3c(c(NCCc4c[nH]cn4)n2)CCNC3)cc1 | -3 | 0.66
O=C(c1cc(Nc2ccc(F)c(Cl)c2)c2ccccc2n1)N1CCCCC1 | 1 | -0.19
C[C@@H]1COCCN1c1nc(NC2CC2)nc(N2CCOC[C@H]2C)n1 | 7 | -1.29
C[C@H]1CCCN1C(=O)c1cccc(-c2ccc3ncnc(NCCO)c3c2)c1 | -7 | 1.47
CN1CCN(C[C@H]2CN(c3nc(-c4ccsc4)nc4ccccc34)CCO2)CC1 | -2 | 0.38
CC(C)C1(CNC(=O)c2c[nH]nc2-c2ccsc2)CC1 | -1 | 0.22
Cc1cccc(C)c1[C@H](C)NC(=O)Nc1ccn(C(C)C)n1 | -4 | 0.68
Cc1cccc2c(CCC(=O)N[C@H]3CCCN(CC(F)(F)F)C3=O)c[nH]c12 | -3 | 0.45
COC1CCCC12CCCN(CCCN1CCN(c3cccc(Cl)c3)CC1)C2 (stereo unspecified) | 0 | 0.06
CN(c1ccccc1)c1ccc(C(=O)N[C@H]2CCN(CCN3CCOCC3)C2)cn1 | -11 | 1.66
Cc1noc(C)c1CO[C@H]1CCN(c2cc(NCC3CC3)ncn2)C1 | -3 | 0.55
Nc1nc2c(c(NCCc3csc(-c4cnccn4)n3)n1)CCNC2 | -4 | 0.59
Nc1ccc(-c2cc(OC(F)(F)F)ccc2O)cn1 | 36 | -6.32
CC1(c2ccccc2)CCN(c2ncccc2S(C)(=O)=O)CC1 | -3 | 0.51
Nc1ccc2c(N3CCC[C@H](CN4CCOCC4)C3)ncnc2n1 | 5 | -0.82
COCCCn1ccc(Nc2nc3ccccc3o2)n1 | 1 | -0.27

SMILES | % Inhibition [%] | Z score
O=C(NC1CCCCCC1C(=O)O)c1csc(C2CC2)n1 (stereo unspecified) | -11 | 2.17
O=C(NCCN1CC[C@@H](O)C1)c1ccccc1-c1ccncc1 | -3 | 0.6
Cc1nc(NCCNc2cnccn2)c2cnn(C)c2n1 | -5 | 0.71
OC1(c2cccc(C(F)(F)F)c2)CCN(C[C@H]2CCCNC2)CC1 | 1 | -0.2
COc1nc(C)cc(C)c1CNC(=O)N1CCCC2OC(c3ccccc3)CC21 (stereo unspecified) | -8 | 1.48
Cc1cc(NC(=O)N2CCn3ccnc32)cnc1C(F)F | -7 | 1
O=C(NCc1ccc(OC(F)(F)F)cc1)N(CCN1CCCC1)[C@H]1CCCNC1 | 39 | -6.86
c1coc(CN2CCC(N3CCC(Oc4ccncc4)CC3)CC2)c1 | -2 | 0.54
CC(C)N1CCN(c2cccc(Nc3ncccn3)c2)CC1 | 5 | -1.03
COc1ccc2cc1O[C@@H]1CN[C@@H](C1)C(=O)NCCCCN(Cc1ccnc3ccccc13)CCCNC2=O | -3 | 0.53
Cc1cnc([C@H](C)NC(=O)Nc2cccc3c2OCC(=O)N3)s1 | -16 | 2.43
C[C@@H](c1ccc(-c2ccc(CN3CCN(C)CC3)cn2)cc1)N1CCCCC1 | 2 | -0.43
C[C@H]1COCCN1CC(=O)N1CC=C(c2c[nH]c3ccccc23)CC1 | 4 | -0.62
CN1CCC(OCCCNC(=O)[C@H]2CC(=O)N(C(C)(C)C)C2)CC1 | -1 | 0.19
CCN(CC)c1cc(-c2cc(NC)nc3[nH]ccc23)nc(N)n1 | -10 | 1.49
COc1ccc(NC(=O)c2ccc(Nc3cc(-c4ccccc4)c4cc(Cl)ccc4n3)cc2)cc1 | -3 | 0.56
Cc1c(CN[C@H]2CCCN(Cc3cccc(O)c3)C2)oc2ccccc12 | -3 | 0.47
Cc1cccnc1NCCNCc1cnc(-c2ccc3ccccc3c2)nc1 | -5 | 0.8
Cc1ccc(CNC(=O)c2cccc(-c3cc(NC4CCCCC4)ncn3)c2)o1 | -5 | 0.95
CC(C)N1C[C@@H](CN2CCC(N3CCC(O)CC3)CC2)CCC1=O | -5 | 0.93
